In the supplement of paper PMC10126150 one finds switch fluorescence ratio data, which are given here for 120 sequences.

Sequences with one replicate were seen in a single cluster, so their values are uncertain.
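Further: ATP exposure 15 min at 22 °C before imaging.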

This data set relates to ATP. The experiment in a line: switch fluorescence ratio, 500 uM ATP over buffer (Cy3 cluster intensity, sum of 5 cycles each) (fold (ratio)); higher = stronger signal-on switching upon ATP binding; sequences stand for … in TCGTCGGCAGCGTCAGATGTGTATAAGAGACAGTTTTTTTTTTTTTTTTTTTTTTTTT…TC. To be noted: aptamer strand: ATP DNA aptamer (quencher-CACCTGGGGGAGTATTGCGGAGGAAGG + anchor), 100 nM annealed; ATP concentration: 500 uM; one replicate. Put shortly: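 The quencher-labelled ATP aptamer, at 100 nM, was annealed to Cy3-labelled switching-strand clusters on a modified Illumina MiSeq flow-cell. The clusters were imaged in selection buffer, then after 15 min with 500 uM ATP at 22 °C, and this buffer/ATP cycle ran five times with NaOH stripping and re-annealing between runs. Per-cluster fluorescence ratios, summed target-cycle over summed buffer-cycle Cy3 intensity, were averaged per switch-domain sequence. Clusters outside 100-1000 RFU were excluded.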
For TACGCAGGTT, the switch fluorescence ratio was found to be 1.

On to GATGCTCCGT, for which the switch fluorescence ratio was 1.09.

In the case of GTTGTGATAT, the switch fluorescence ratio was 0.939.

CGTTAGGACT: the switch fluorescence ratio was 0.972.

For TCATCAAGAT, the switch fluorescence ratio was 1.01.

In the case of TCAACTAGAG, the switch fluorescence ratio amounted to 0.991.

With ACAGCTGGAC, the switch fluorescence ratio was determined as 1.17.

In the case of TACTAACCGA, the switch fluorescence ratio worked out at 1.19.

For the sequence CCACTTCTAG, the switch fluorescence ratio turned out to be 0.988.

Take TATGTGCGTC: the switch fluorescence ratio is 1.03.

TCAGTGCTTC: the switch fluorescence ratio turned out to be 1.03.

For the sequence AAATGGGCCG, the switch fluorescence ratio is 0.995.

Turning to CCTCTCTCGT, the switch fluorescence ratio came to 1.05.

With TAGTTAGGTC, the switch fluorescence ratio is 0.991.

On to CACCTTAATA, for which the switch fluorescence ratio was found to be 1.05.

Regarding GATTCTGTTG, the switch fluorescence ratio stood at 0.96.

Turning to AATACCTGTA, the switch fluorescence ratio stood at 1.06.

Regarding CACTTGGATG, the switch fluorescence ratio was 0.998.

As for ACTAATCC, the switch fluorescence ratio is 1.07.

TGCGAGCGCG: the switch fluorescence ratio stood at 1.

As to CGTATTCGGG, the switch fluorescence ratio came out at 0.982.

Take ATGTCGACAA: the switch fluorescence ratio was 1.01.

In the case of CAGTACAAAA, the switch fluorescence ratio worked out at 0.95.

On to CCCACGGGGT, for which the switch fluorescence ratio came to 1.19.

Take AAGGCGTTGG: the switch fluorescence ratio was 1.

Take GGATGCTAC: the switch fluorescence ratio was 1.31.

Turning to GTTTAGAGAA, the switch fluorescence ratio worked out at 0.967.

For the sequence ATTTTGTAGC, the switch fluorescence ratio was found to be 1.57.

With CACAAATTAG, the switch fluorescence ratio was found to be 0.982.

Take AAAGTGTCG: the switch fluorescence ratio stood at 0.987.

With TTTCACGCAT, the switch fluorescence ratio worked out at 3.63.

For the sequence ATAAAGTTAT, the switch fluorescence ratio turned out to be 1.

On to GTAAATATTT, for which the switch fluorescence ratio was found to be 1.04.

Regarding TGCAGACTGG, the switch fluorescence ratio was found to be 1.02.

Consider AGATATCATA, for which the switch fluorescence ratio worked out at 0.98.

As for TCATTGCATG, the switch fluorescence ratio was found to be 1.03.

As for CCACACGAT, the switch fluorescence ratio stood at 1.03.

For AGAGGTGGCA, the switch fluorescence ratio was 0.986.

Consider AAGGTGATAT, for which the switch fluorescence ratio was 1.06.

Consider AGCAAATCCC, for which the switch fluorescence ratio amounted to 1.82.

For the sequence TCTTCGTTAT, the switch fluorescence ratio came to 1.07.

As to AAATCTGATG, the switch fluorescence ratio came out at 0.994.

As for AGCAATTGGC, the switch fluorescence ratio stood at 1.3.

In the case of AGGGCGCATA, the switch fluorescence ratio was 1.03.

AATTCCGCAT: the switch fluorescence ratio is 3.76.

In the case of TGAGATTCGT, the switch fluorescence ratio was found to be 1.

Regarding AAACTTATTT, the switch fluorescence ratio came to 1.04.

AAGTAGGATT: the switch fluorescence ratio is 1.03.

For the sequence GGGGGTGA, the switch fluorescence ratio was 0.951.

For the sequence GGCTGGAGCG, the switch fluorescence ratio was found to be 0.989.

As for GCAGACACGA, the switch fluorescence ratio came to 1.05.

On to TTTCTTTACG, for which the switch fluorescence ratio was determined as 1.04.

Take CCTTACGTCC: the switch fluorescence ratio came out at 1.26.

As to TGATCATGAA, the switch fluorescence ratio was 1.02.

Consider CCACGTGTGT, for which the switch fluorescence ratio was determined as 1.05.

ATCAGAGTAT: the switch fluorescence ratio was determined as 1.01.

With TGGTGCGGC, the switch fluorescence ratio was 1.03.

For the sequence CTTTTGAATA, the switch fluorescence ratio was 1.05.

As to AGATTGATA, the switch fluorescence ratio stood at 0.988.

Regarding GCAGCCCCGT, the switch fluorescence ratio turned out to be 1.07.

With ATATCGTTTT, the switch fluorescence ratio is 0.971.

For AAGGATCACA, the switch fluorescence ratio stood at 0.984.

Consider TCAGGTCAAA, for which the switch fluorescence ratio came out at 1.02.

Take TGCCACCCC: the switch fluorescence ratio was 1.23.

On to GTAGAGGG, for which the switch fluorescence ratio worked out at 1.02.

In the case of GTCAGAATGG, the switch fluorescence ratio worked out at 1.03.

For GGTCTAATTA, the switch fluorescence ratio was determined as 0.953.

TATGAACAGG: the switch fluorescence ratio was found to be 1.05.

Take AAACCATTAC: the switch fluorescence ratio amounted to 1.57.

Take AGGCAGTTTG: the switch fluorescence ratio was 0.982.

With AGGGTTCCCC, the switch fluorescence ratio was 1.03.

CGTCTAGGCA: the switch fluorescence ratio came to 1.08.

Take GCCATGCTCG: the switch fluorescence ratio stood at 0.985.

Take TAAGAAAGC: the switch fluorescence ratio is 1.82.

For CCAGGCTCTA, the switch fluorescence ratio worked out at 0.999.

For AGGCGTCTTG, the switch fluorescence ratio was 1.

As for CCCGTTGCAC, the switch fluorescence ratio is 1.41.

Regarding AGTGAGCAA, the switch fluorescence ratio amounted to 1.62.

As to GTTTTGGTAA, the switch fluorescence ratio stood at 0.923.

Take TTCAATGAAT: the switch fluorescence ratio is 1.03.

Turning to CGCGGCCTTT, the switch fluorescence ratio came out at 1.01.

As for GCAATTCGCC, the switch fluorescence ratio was found to be 4.03.

Turning to TTGCCGTGAC, the switch fluorescence ratio was 1.01.

Consider CTGGTAAGAT, for which the switch fluorescence ratio was determined as 1.03.

GAAGGAGCCG: the switch fluorescence ratio was 0.951.

In the case of GATTTTTTTA, the switch fluorescence ratio turned out to be 1.01.

As for CCTGAACCAT, the switch fluorescence ratio is 1.03.

Turning to GACTGTACGC, the switch fluorescence ratio came out at 1.6.

On to GGGGAACATT, for which the switch fluorescence ratio is 0.984.

Regarding GTTAGCGAGG, the switch fluorescence ratio came to 1.04.

On to ATCGTGGAGC, for which the switch fluorescence ratio stood at 0.993.

In the case of ACAAGTAGCA, the switch fluorescence ratio came to 1.01.

Take AAGCGCACCC: the switch fluorescence ratio amounted to 1.13.

Turning to CGGGGCCTAA, the switch fluorescence ratio was 1.

Regarding GGCGCCGGGA, the switch fluorescence ratio was 0.948.

As to AGATGTTGG, the switch fluorescence ratio was 0.985.

Regarding CAAAAAACTA, the switch fluorescence ratio came to 1.08.

For GGTATGCGGG, the switch fluorescence ratio amounted to 0.966.

For the sequence TCATTCATAG, the switch fluorescence ratio stood at 0.996.

AGATAAAGTC: the switch fluorescence ratio was 1.01.

As to TTTTCCGTGT, the switch fluorescence ratio worked out at 0.987.

With GGGCAGCTTT, the switch fluorescence ratio worked out at 1.

Regarding TTAGACTGAT, the switch fluorescence ratio turned out to be 1.04.

For the sequence TTTTTAATG, the switch fluorescence ratio amounted to 0.958.

Consider TTGTTTTAGA, for which the switch fluorescence ratio turned out to be 0.963.

Take AATAGGCCCA: the switch fluorescence ratio worked out at 0.988.

As for GTCGTAAGTG, the switch fluorescence ratio was found to be 0.987.

Take ACGTCTCGGC: the switch fluorescence ratio was 0.939.

On to ATCAGTGTTT, for which the switch fluorescence ratio amounted to 0.985.

As to AGGACGTCG, the switch fluorescence ratio was determined as 0.955.

AGTTAATCTC: the switch fluorescence ratio was determined as 1.02.

As for AGCTCCGGTT, the switch fluorescence ratio amounted to 1.07.

Take CCTGATTGTC: the switch fluorescence ratio worked out at 1.07.

As to TATAAAAGA, the switch fluorescence ratio is 1.02.

For ACGTTAGGCT, the switch fluorescence ratio turned out to be 1.05.

ACATCGGCGC: the switch fluorescence ratio was found to be 1.02.

On to GGAGGGTCTG, for which the switch fluorescence ratio was determined as 0.95.

Regarding CCAAACTGCA, the switch fluorescence ratio was determined as 1.15.

As to AGCTCAGTTA, the switch fluorescence ratio was 0.999.

Regarding TAGGAATCAT, the switch fluorescence ratio amounted to 0.982.
